Data: the supplement of paper PMC4967469

How the values were obtained:
Experiment in all cases: Viability of human cancer cell lines after 72 h of drug (GDSC screen)
[1] = compound: COc1ccccc1S(=O)(=O)Nc1ccc2c(c1)CN(C)C(=O)N2 [PFI-1]; settings: top dose 10 µM; top dose inferred
Procedure: (§1)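 Human cancer cell lines in 384-well plates, medium with 10% serum, drug for 72 h over a 256-fold dose range (nine 2-fold or five 4-fold steps up to the top dose). Adherent lines were fixed and stained with the nucleic acid dye Syto60, suspension lines read with resazurin; signal relative to control wells, capped at 0 and 100%. One two-parameter sigmoid per drug and line, fitted in a mixed model over all curves with the slope shared within a line.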

[2] = compound: CCN1CCN(Cc2ccc(NC(=O)c3ccc(C)c(Oc4ccnc5[nH]ccc45)c3)cc2C(F)(F)F)CC1 [NG-25]; settings: top dose 10.24 µM; top dose inferred
Procedure: as §1

[3] = compound: CCc1cc(Nc2nccc(-c3c(-c4ccc(OC)c(C(=O)Nc5c(F)cccc5F)c4)nc4ccccn34)n2)c(OC)cc1N1CCC(N2CCN(S(C)(=O)=O)CC2)CC1 [GSK-1904529A]; settings: top dose 1.024 µM; top dose inferred
Procedure: as §1

[4] = compound: Cn1cncc1[C@@](N)(c1ccc(Cl)cc1)c1ccc2c(c1)c(-c1cccc(Cl)c1)cc(=O)n2C [Tipifarnib]; settings: top dose 16 µM; top dose inferred
Procedure: as §1

Cell Line	AUC [1]	IC50 [1]	AUC [2]	IC50 [2]	AUC [3]	IC50 [3]	AUC [4]	IC50 [4]
CaR-1 (large intestine, adherent)	0.959	> 10 µM	0.965	> 10.2 µM	0.945	> 1.02 µM	0.734	6.65 µM
Calu-3 (lung adenocarcinoma, adherent)	0.772	4.89 µM	0.983	> 10.2 µM	0.979	> 1.02 µM	0.642	2.74 µM
Caov-4 (ovary, adherent)	0.903	> 10 µM	0.783	6.66 µM	0.968	> 1.02 µM	0.833	> 16 µM
Capan-2 (pancreas, adherent)	0.924	> 10 µM	0.935	> 10.2 µM	0.97	> 1.02 µM	0.78	8.1 µM
ChaGo-K-1 (non-small cell lung carcinoma, adherent)	0.942	> 10 µM	0.923	> 10.2 µM	0.944	> 1.02 µM	0.571	1.61 µM
D-392MG (glioma, adherent)	0.885	> 10 µM	0.815	8.44 µM	0.978	> 1.02 µM	0.951	> 16 µM
D-542MG (glioma, adherent)	0.893	> 10 µM	0.963	> 10.2 µM	0.959	> 1.02 µM	0.624	2.38 µM
DAN-G (pancreas, adherent)	0.967	> 10 µM	0.988	> 10.2 µM	0.991	> 1.02 µM	0.963	> 16 µM
DBTRG-05MG (glioma, adherent)	0.894	> 10 µM	0.896	> 10.2 µM	0.984	> 1.02 µM	0.761	6.62 µM
DK-MG (glioma, adherent)	0.814	9.25 µM	0.9	> 10.2 µM	0.978	> 1.02 µM	0.975	> 16 µM
DMS-53 (small cell lung carcinoma, adherent)	0.841	7.69 µM	0.988	> 10.2 µM	0.96	> 1.02 µM	0.911	> 16 µM
DMS-273 (small cell lung carcinoma, adherent)	0.976	> 10 µM	0.741	3.28 µM	0.929	> 1.02 µM	0.403	0.534 µM
DOK (head and neck, adherent)	0.776	6.25 µM	0.936	> 10.2 µM	0.937	> 1.02 µM	0.911	> 16 µM
DU-145 (prostate, adherent)	0.861	> 10 µM	0.856	9.81 µM	0.971	> 1.02 µM	0.757	6.09 µM
Daoy (medulloblastoma, adherent)	0.858	7 µM	0.897	> 10.2 µM	0.94	> 1.02 µM	0.132	0.0813 µM
Detroit562 (head and neck, adherent)	0.842	6.62 µM	0.972	> 10.2 µM	0.972	> 1.02 µM	0.705	3.69 µM
DoTc2-4510 (cervix, adherent)	0.908	> 10 µM	0.943	> 10.2 µM	0.961	> 1.02 µM	0.555	1.4 µM
EBC-1 (lung squamous cell carcinoma, adherent)	0.692	2.33 µM	0.975	> 10.2 µM	0.983	> 1.02 µM	0.482	0.89 µM
ECC10 (stomach, suspension)	0.793	4.81 µM	0.853	8.54 µM	0.952	> 1.02 µM	0.629	2.31 µM
EFM-19 (breast, adherent)	0.795	7.67 µM	0.757	5.33 µM	0.923	> 1.02 µM	0.555	1.53 µM
EFM-192A (breast, adherent)	0.905	> 10 µM	0.952	> 10.2 µM	0.909	> 1.02 µM	0.411	0.553 µM
EFO-21 (ovary, adherent)	0.827	> 10 µM	0.886	> 10.2 µM	0.969	> 1.02 µM	0.624	2.56 µM
EFO-27 (ovary, adherent)	0.96	> 10 µM	0.84	9.81 µM	0.931	> 1.02 µM	0.474	0.834 µM
EGI-1 (biliary tract, adherent)	0.88	> 10 µM	0.937	> 10.2 µM	0.967	> 1.02 µM	0.67	3.45 µM

The IC50 comes from the fitted curve, where viability falls to half of the control; a fit beyond the top or the lowest dose is shown as a bound at that dose. AUC is the area under the same curve over the 256-fold range up to the top dose, as a fraction; values near 1 show little effect. The top dose, if marked as inferred, comes from the curve model; the source does not state it.
